Test results: the supplement of paper PMC7125110
± gives the standard error. Variants at the background level are over-represented here.

B1: glmS ribozyme (parent)
chain: AUAAAAGCGCCAGAACUACAGAAAUGUAGUUGACGAGGAGGAGGUUUAUCGAAUUUUCGGCGGAUGCCUCCAAA

Key:
Conditions in all cases: with glucosamine-6-phosphate
glucosamine-6-phosphate [1] = variants of: B1; assay: self-cleavage kobs at 40 uM GlcN6P; higher = faster cleavage; RNA array
In short: (§1)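 kobs was derived by fitting per-tile medians to one- or two-exponential decays after normalising signals to baseline and to non-cleaving reference variants. Those signals came from barcoded ribozyme variants transcribed in situ by E. coli RNA polymerase on sequenced MiSeq chips, followed through a hybridised Cy3 probe at 37 °C and imaged over ~14 h. Glucosamine-6-phosphate (40 μM to 10 mM) in HEPES/KCl/Mg(OAc)2 buffer was flowed in. Weighted Michaelis–Menten fits across concentrations then gave kcat and KM.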

glucosamine-6-phosphate [2] = variants of: B1; assay: self-cleavage kobs at 10000 uM GlcN6P; higher = faster cleavage; RNA array
In short: as §1

glucosamine-6-phosphate [3] = variants of: B1; assay: self-cleavage kobs at 640 uM GlcN6P; higher = faster cleavage; RNA array
In short: as §1

glucosamine-6-phosphate [4] = variants of: B1; assay: self-cleavage kobs at 160 uM GlcN6P; higher = faster cleavage; RNA array
In short: as §1

glucosamine-6-phosphate [5] = variants of: B1; assay: self-cleavage kobs at 2500 uM GlcN6P; higher = faster cleavage; RNA array
In short: as §1

Row | Variant | self-cleavage kobs at 40 uM GlcN6P (glucosamine-6-phosphate [1]) | self-cleavage kobs at 10000 uM GlcN6P (glucosamine-6-phosphate [2]) | self-cleavage kobs at 640 uM GlcN6P (glucosamine-6-phosphate [3]) | self-cleavage kobs at 160 uM GlcN6P (glucosamine-6-phosphate [4]) | self-cleavage kobs at 2500 uM GlcN6P (glucosamine-6-phosphate [5])
1 | A12G C50U | < 1e-05 s⁻¹ | – | – | – | –
2 | G13A A15C A52G A53C | < 1e-05 s⁻¹ | – | – | – | –
3 | C11U G29C C34U U45A U69A | < 1e-05 s⁻¹ | < 1e-05 s⁻¹ | – | – | –
4 | A12U A33U G41U G60A | < 1e-05 s⁻¹ | < 1e-05 s⁻¹ | – | – | –
5 | G13A | 1.56e-05 ± 1.7e-06 s⁻¹ | 0.000945 ± 3.6e-05 s⁻¹ | 0.000162 ± 3.8e-06 s⁻¹ | 4.65e-05 ± 1.7e-06 s⁻¹ | 0.00057 ± 3.3e-05 s⁻¹
6 | G13A A33G G43C C50U | < 1e-05 s⁻¹ | < 1e-05 s⁻¹ | – | – | –
7 | G13A U30C A42U | < 1e-05 s⁻¹ | < 1e-05 s⁻¹ | – | – | –
8 | A12G G32C | < 1e-05 s⁻¹ | – | – | < 1e-05 s⁻¹ | –
9 | A12C U45A U47C C50A G59C C70U | < 1e-05 s⁻¹ | < 1e-05 s⁻¹ | < 1e-05 s⁻¹ | – | < 1e-05 s⁻¹
10 | A12C A39G C50U A53G | < 1e-05 s⁻¹ | – | – | – | –
11 | A12U G59C U65G | < 1e-05 s⁻¹ | – | – | – | –
12 | A12C C61G | < 1e-05 s⁻¹ | < 1e-05 s⁻¹ | < 1e-05 s⁻¹ | < 1e-05 s⁻¹ | –
13 | C11G G37U | < 1e-05 s⁻¹ | < 1e-05 s⁻¹ | – | – | < 1e-05 s⁻¹
14 | G13C G38C | < 1e-05 s⁻¹ | < 1e-05 s⁻¹ | – | – | < 1e-05 s⁻¹
15 | C11U G32C G35U G43A | < 1e-05 s⁻¹ | < 1e-05 s⁻¹ | – | – | –
16 | A12U G44U A48C C71G | < 1e-05 s⁻¹ | – | < 1e-05 s⁻¹ | < 1e-05 s⁻¹ | < 1e-05 s⁻¹
17 | G13C A42U | < 1e-05 s⁻¹ | – | – | < 1e-05 s⁻¹ | < 1e-05 s⁻¹
18 | G13A G32A G35A G40A C71U | < 1e-05 s⁻¹ | < 1e-05 s⁻¹ | < 1e-05 s⁻¹ | – | < 1e-05 s⁻¹
19 | G13C C34G G38U G51A | < 1e-05 s⁻¹ | – | – | – | –
20 | A12G A15C G35U C71U | < 1e-05 s⁻¹ | – | – | – | –
21 | A12G A15G C70A | < 1e-05 s⁻¹ | 8.6e-05 ± 3.1e-05 s⁻¹ | – | – | 5.85e-05 ± 1.1e-05 s⁻¹
22 | A12C G38C G44A A64G | < 1e-05 s⁻¹ | – | – | – | –
23 | G13A G35U | < 1e-05 s⁻¹ | < 1e-05 s⁻¹ | < 1e-05 s⁻¹ | < 1e-05 s⁻¹ | –
24 | G13A G29U A39G G40A C58A C70G | < 1e-05 s⁻¹ | < 1e-05 s⁻¹ | – | – | < 1e-05 s⁻¹
25 | C11U A33G C61G | < 1e-05 s⁻¹ | < 1e-05 s⁻¹ | – | – | –
26 | C11U A36G G38C U69C | < 1e-05 s⁻¹ | – | – | – | –
